From paper PMC12074784 (Journal of the American Heart Association: Cardiovascular …, 2025)

Biological target: T1, caveolin-1 (rat (endogenous in rat cardiomyocytes), UniProt P41350 1-178)
T1 sequence (looked up): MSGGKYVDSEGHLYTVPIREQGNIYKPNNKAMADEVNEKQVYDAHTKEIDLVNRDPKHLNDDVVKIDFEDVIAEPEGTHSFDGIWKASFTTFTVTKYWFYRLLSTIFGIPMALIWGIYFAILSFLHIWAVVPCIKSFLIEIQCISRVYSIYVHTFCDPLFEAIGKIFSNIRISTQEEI
Test: co-IP

B1: connexin-43 (natural protein)
chain: not shown
- co-IP band ratio Cx43/Cav-1, Sham group: 0.77
